# Publication PMC6919601, “Identification of Plasmodium dipeptidyl aminopeptidase allosteric inhibitors by high throughput screening” (PLoS ONE, 2019)
# The campaign covered roughly 110,000 compounds. About 230 (0.21%) showed an effect of 50% or more. The list shows a part of the results.
# Molecular target: DPAP1 (Plasmodium falciparum, UniProt Q8IIJ9)
# Assay: primary screen, percent inhibition; read by cleavage of a fluorogenic dipeptide substrate; higher = more effect of the substance
# Design: species or system P. falciparum D10 trophozoite lysates; single well
# 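Further: 30 min substrate incubation versus DMSO and 10 µM JCP410 controls.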
# Chain of DPAP1 (Q8IIJ9 whole entry, looked up): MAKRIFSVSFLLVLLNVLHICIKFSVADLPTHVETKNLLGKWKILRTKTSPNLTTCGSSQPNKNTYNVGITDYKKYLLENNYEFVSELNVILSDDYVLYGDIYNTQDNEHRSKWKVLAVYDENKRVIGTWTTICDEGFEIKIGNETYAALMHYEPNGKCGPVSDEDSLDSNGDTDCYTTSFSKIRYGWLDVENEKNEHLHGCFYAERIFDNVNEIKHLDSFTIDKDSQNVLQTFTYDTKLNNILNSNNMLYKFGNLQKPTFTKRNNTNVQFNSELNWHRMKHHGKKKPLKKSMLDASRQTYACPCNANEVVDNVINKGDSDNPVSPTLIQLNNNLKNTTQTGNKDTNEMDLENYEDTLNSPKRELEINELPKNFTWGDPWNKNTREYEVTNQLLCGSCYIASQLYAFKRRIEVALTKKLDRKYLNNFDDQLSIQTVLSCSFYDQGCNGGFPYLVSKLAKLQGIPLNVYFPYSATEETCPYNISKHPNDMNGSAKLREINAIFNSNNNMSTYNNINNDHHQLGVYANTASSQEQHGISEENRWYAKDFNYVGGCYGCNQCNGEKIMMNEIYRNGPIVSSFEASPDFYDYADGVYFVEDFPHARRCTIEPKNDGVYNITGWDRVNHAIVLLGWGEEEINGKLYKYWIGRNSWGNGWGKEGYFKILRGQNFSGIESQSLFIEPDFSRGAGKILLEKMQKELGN
row,Structure (SMILES),% Inhibition @ 10 uM [%]
1,Clc1ccc(N2CCN(Cc3ccco3)CC2)cc1,1.63
2,Cc1c(C(=O)Nc2nc3c(s2)CCCC3)oc2ccccc12,-2.85
3,Cc1ccc(Cl)cc1-n1c(SCC(=O)NCCc2ccccc2)nc2nnc(C)c-2c1N,-2.17
4,Cc1[nH]c2ccccc2c1/C=C1/S/C(=N\c2ccccc2)N(C)C1=O,13.8
5,CC1CCN(C(=O)CCc2nc(-c3ccc(Cl)cc3)no2)CC1,-3.12
6,CN(C)CCN(Cc1ccccc1)Cc1ccccc1F,3.19
7,CC(=O)N1CCC2(CC1)OC(=O)C(C)=C2C(=O)N1CCOCC1,-4.67
8,Cc1ccc(C(C)C)c(OCC(O)CN2CCN(CCO)CC2)c1 (centres unmarked),-2.28
9,CC(C)C(NS(=O)(=O)c1cccs1)C(=O)NC(c1ccccc1)c1ccccc1 (centres unmarked),1.37
10,CCCCNc1cc(C)nc2c(-c3ccc(Cl)cc3)c(C)nn12,-2.72
11,O=C1NC(c2ccccc2Cl)Nc2ccccc21 (centres unmarked),0.161
12,COc1ccccc1C(CC(=O)N1CCCC1)c1ccc2c(c1)OCO2 (centres unmarked),-2.29
13,COc1cccc(C(=O)Nc2cccc(Cl)c2)c1,5.31
14,CCOC(=O)N1CCN(C(=O)CCCCn2c(=O)[nH]c3ccsc3c2=O)CC1,-4.06
15,Cc1ccc(CNC(=O)c2cc3c(Cl)nc4ccccc4c3s2)o1,1.66
16,Cc1nc2cc(-c3ccccc3)nn2c(C)c1CCC(=O)N1CCN(Cc2ccccc2)CC1,2.93
17,CCC(C)NC=C1C(=O)NC(=O)NC1=O (centres unmarked),14.1
18,CCCN1CCN(C(=O)CSc2nnc(C)c3c(C)n(-c4ccccc4)nc23)CC1,-6.88
19,COc1ccc(C(=O)c2c(C)oc3ccc(OC)cc23)cc1,1.38
20,COc1ccc(CCNC(=O)Cn2cnc3c(nnn3-c3ccc(F)cc3)c2=O)cc1OC,-3.94
21,O=C(c1ccco1)N1CCN(c2ccccn2)CC1,-3.21
22,O=C(COc1ccccc1)Nc1ccccc1NC(=O)COc1ccccc1,-0.116
23,O=C(c1ccc2nc(N3CCCCC3)sc2c1)N1CCN(Cc2ccccc2)CC1,-2.37
24,Cc1ccc(Cl)cc1N(CC(=O)Nc1cccc(Br)c1)S(C)(=O)=O,0.913
25,Cc1ccc(-c2cc(C(=O)NCCCn3ccnc3)c3ccccc3n2)s1,-5.56

row,Structure (SMILES),% Inhibition @ 10 uM [%]
1,CCN1CCN(C2CCCCCC2)CC1,-4.75
2,CC(=O)C1=C(O)C(=O)N(CCc2c[nH]c3ccccc23)C1c1cccc(F)c1 (centres unmarked),-3.95
3,c1nc2c(ccc3nsnc32)[nH]1,-2.14
4,C=CCNC(=O)CN(c1ccccc1OC)S(=O)(=O)c1ccccc1,3.17
5,COc1cccc(N2/C(=N\C(=O)c3ccc(Br)cc3)SC3CS(=O)(=O)CC32)c1 (centres unmarked),-1.82
6,CC(=O)c1c(C)n(-c2cccc(C(F)(F)F)c2)c2ccc(O)cc12,11.4
7,COc1ccc(OC)c(C2CC(=O)C3=C(C2)NC(=O)CC3c2ccc(O)c(OC)c2)c1 (centres unmarked),-2.24
8,O=C(NCC1CCCO1)c1ccc(CN2CCc3ccccc3C2)cc1 (centres unmarked),-1.81
9,CCOC(=O)C1=C(C)N(C)C(SC)=NC1c1ccco1 (centres unmarked),3.01
10,CCC(=O)N1N=C2C3CCN(CC3)C2C1c1ccccc1 (centres unmarked),-5.1
11,CCCCOc1ccc(S(=O)(=O)N(Cc2ccccc2)Cc2ccccc2)cc1,4.55
12,O=C(/C=C/c1ccc(Cl)cc1)NCCCn1ccnc1,5.44
13,COc1ccc2[nH]c3c(=O)n(CCCCC(=O)N4CCN(C)CC4)c(=S)[nH]c3c2c1,34.4
14,CCO/C(O)=C1/C(CC)=NC2=C(C(=O)CCC2)C1c1ccc(Cl)cc1 (centres unmarked),-2.35
15,CCOc1cc(Br)c(/C=C2\SC(=O)NC2=O)cc1OC,-3.98
16,COc1ccccc1CNC(=O)c1sc2nc(-c3cccs3)ccc2c1N,-1.47
17,CC(=O)c1ccc(NC(=O)c2ccc(COc3cccc4ccccc34)o2)cc1,-5.31
18,CC(C)C(=O)N1CCN(c2ccc(NC(=O)c3ccc(C#N)cc3F)cc2)CC1,2.84
19,O=S(=O)(NC1CCCCC1N1CCN(c2ncccn2)CC1)c1ccccc1 (centres unmarked),-9.95
20,N#CC1=C(N)Oc2c(c(O)nc3nc(Nc4ccccc4)sc23)C1c1ccc(Br)cc1 (centres unmarked),-1.06
21,CC(CCCC(C)(C)O)CC1OCC(C)O1 (centres unmarked),-2
22,CC1=C(C(=O)NCCc2ccc(C)cc2)C2(CCC(C)CC2)OC1=O (centres unmarked),4.77
23,CCOc1ccc(Br)cc1C1/C(=C(\O)OC(C)C)C(C)=Nc2nnnn21 (centres unmarked),-1.72
24,COc1ccc(C(=O)Nc2ccc(C(=O)O)cc2)cc1,-8.3
25,COc1nc(C)c([N+](=O)[O-])c(N(C)c2ccccc2)n1,-0.736
